Measurements published in paper PMC4336329 (PLoS ONE, 2015).
In all, about 310,000 compounds went through this assay and about 14,000 (4.5%) showed an effect of 50% or more. The effect is printed as a negative number. Some of the results follow.

These compounds were tested against human ether-à-go-go-related gene (hERG) potassium channel (human, UniProt Q12809) (assay: primary screen, population patch clamp on CHO cells stably expressing hERG).
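Note: peak tail current of the secondary pulse compared with the same well before compound.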

human ether-à-go-go-related gene (hERG) potassium channel, sequence (Q12809 whole entry, looked up): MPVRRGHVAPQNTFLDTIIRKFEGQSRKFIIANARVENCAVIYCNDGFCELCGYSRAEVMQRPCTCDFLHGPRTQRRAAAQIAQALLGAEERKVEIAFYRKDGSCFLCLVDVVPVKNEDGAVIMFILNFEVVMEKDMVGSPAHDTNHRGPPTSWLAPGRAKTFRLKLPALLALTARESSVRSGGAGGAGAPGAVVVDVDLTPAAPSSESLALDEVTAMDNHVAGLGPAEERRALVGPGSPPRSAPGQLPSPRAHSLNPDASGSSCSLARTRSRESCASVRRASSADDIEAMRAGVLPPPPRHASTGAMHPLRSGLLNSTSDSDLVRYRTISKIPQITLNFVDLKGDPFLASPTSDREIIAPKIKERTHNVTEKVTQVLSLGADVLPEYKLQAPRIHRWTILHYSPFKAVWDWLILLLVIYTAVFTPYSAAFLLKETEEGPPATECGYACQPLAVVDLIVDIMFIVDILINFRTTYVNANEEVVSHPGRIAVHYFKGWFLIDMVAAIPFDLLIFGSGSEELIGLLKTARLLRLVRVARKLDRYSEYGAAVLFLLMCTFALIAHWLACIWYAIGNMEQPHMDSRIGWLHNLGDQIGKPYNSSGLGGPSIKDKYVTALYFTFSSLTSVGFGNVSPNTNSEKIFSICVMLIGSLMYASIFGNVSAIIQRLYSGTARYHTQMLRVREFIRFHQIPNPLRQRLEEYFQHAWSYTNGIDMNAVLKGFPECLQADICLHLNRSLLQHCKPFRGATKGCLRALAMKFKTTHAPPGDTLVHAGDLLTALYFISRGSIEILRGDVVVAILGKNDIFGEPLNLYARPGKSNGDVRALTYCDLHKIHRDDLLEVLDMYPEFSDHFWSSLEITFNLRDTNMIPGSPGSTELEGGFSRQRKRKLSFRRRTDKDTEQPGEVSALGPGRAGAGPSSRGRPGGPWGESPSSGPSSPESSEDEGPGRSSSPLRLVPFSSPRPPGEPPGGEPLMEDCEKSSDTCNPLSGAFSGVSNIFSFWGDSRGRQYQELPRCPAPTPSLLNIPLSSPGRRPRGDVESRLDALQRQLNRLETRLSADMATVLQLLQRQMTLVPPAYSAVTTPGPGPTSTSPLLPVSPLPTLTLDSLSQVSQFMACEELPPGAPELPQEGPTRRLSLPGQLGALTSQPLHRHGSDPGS

SMILES	hERG current change (%, negative = inhibition) at 10uM [%]
CN1C(C(=O)Nc2ccc(OC(F)(F)F)cc2)=CC(c2cccs2)=NS1(=O)=O	2.74
Cc1ccc(S(=O)(=O)CC(=O)Nc2ccc(F)c(F)c2F)cc1	14.4
O=C(Nc1cccnc1)c1cc(F)c(F)cc1Cl	19.7
CC1CN(CCn2cnc3c(N)ncnc32)CC(C)O1 (centres unmarked)	12.1
CCOc1cc(/C=C2\NC(=S)N(c3c(C)n(C)n(-c4ccccc4)c3=O)C2=O)ccc1O	9.12
CCOc1cc(CNCCCN2CCOCC2)cc(Br)c1OCC(=O)Nc1cccc(C(F)(F)F)c1.Cl	-70.3
CC1CN(C(=O)C(C)OC(=O)c2ccc3ncsc3c2)CC(C)O1 (centres unmarked)	20.1
CCOC(=O)c1c(C)n(CC(O)CN(C)C)c2cc(Br)c(OC)cc12.Cl (centres unmarked)	-51.5
COc1ccc2oc3cc(C)[n+]([O-])c(-c4ccc(Cl)cc4)c3c2c1	-8.3
COc1ccc(CNc2oc(COc3ccccc3Cl)nc2C#N)cc1	3.67
CCOc1ccc(CN2CCC(Cc3ccccc3)CC2)cc1	-78.3
COc1cc(C2/C(=C(/O)c3ccc(OCC(C)C)cc3)C(=O)C(=O)N2CCN(C)C)ccc1O (centres unmarked)	5.74
COc1cccc(C(CC(=O)NCc2ccco2)NS(=O)(=O)c2ccc(C)cc2)c1OC (centres unmarked)	-16.6
Cc1cccc(NC(=O)c2cc(=O)n(Cc3ccccc3)c(=O)[nH]2)c1	-2.18
CC(NC(=O)c1ccc2ccccc2n1)c1ccccc1 (centres unmarked)	-6.17
CC(=O)/C(=N\Nc1ccc(C)cc1)N1CCOCC1	5.27
O=C(NCc1ccccc1F)C1CCCN1C(=O)NC1CCCCC1 (centres unmarked)	-11.8
Cc1ccc(-n2c(O)c(C=NCCN(C)C)c(=O)[nH]c2=O)cc1	20
Cc1c(C)n(C)c2ccc(C(=O)Nc3cccc4ccccc34)cc12	10.5

SMILES	hERG current change (%, negative = inhibition) at 10uM [%]
O=C(COc1ccccc1)NCC(=O)Nc1cccc(S(=O)(=O)NC2=NCCC2)c1	-2.56
Cc1ccc(C(=O)N2CCN(c3ccccc3Cl)CC2)cc1[N+](=O)[O-]	-35.3
Oc1ccccc1Cc1c(O)ccc2ccccc12	6.84
CCc1cccc(CC)c1NC(=S)NCc1ccc2c(c1)OCO2	-8.67
CC(C)[C@H](NC(=O)OC(C)(C)C)C(=O)N/N=C/c1cccc2nccnc12	-3.53
COc1ccccc1CCC(=O)Nc1cc(S(=O)(=O)N2CCOCC2)ccc1N1CCCC1	-30.8
Cc1nnc(NC(=O)CN2CCN(Cc3ccccc3)CC2)s1	12.1
COC(=O)C(NNc1ccccc1C)(NC(=O)c1ccc(F)cc1)C(F)(F)F (centres unmarked)	-1.2
C/C(=N/NC(=O)c1nnn(-c2nonc2N)c1COc1ccccc1)c1ccccc1Cl	11.2
Cl.Clc1ccc(OCc2nnc(SCCN3CCCCC3)n2Cc2ccco2)cc1	-75.9
Cc1[nH]c2ccccc2c1SCC(=O)Nc1nccs1	0.599
CC1CN(C(=O)CSc2cn(CC(=O)N3CCOCC3)c3ccccc23)CC(C)O1 (centres unmarked)	17.3
CCC1CCCCN1CCCNC(=O)c1cn(C)c2ccc(S(=O)(=O)N3CCOCC3)cc2c1=O (centres unmarked)	21.3
COC(=O)c1ccc(Nc2nc(C)cc(=O)[nH]2)cc1	-2.1
COc1cc(CNn2cnnc2)ccc1OCC(=O)NC(C)(C)C	1.29
O=C1NC(=O)N(Cc2ccccc2F)C1=O	21.3
CC(C)=CCN1CCN(Cc2cnc(C)s2)CC1CCO (centres unmarked)	11.8
CCN(CC(=O)Nc1ccc(NC(C)=O)cc1)C(=O)CC1OC(=O)c2ccccc21 (centres unmarked)	5.6
CSc1cc(/C=N/O)c(SC)s1	-13.2

SMILES	hERG current change (%, negative = inhibition) at 10uM [%]
Cc1c(NC(=O)C2Cc3ccccc3CN2C(=O)c2ccco2)c(=O)n(-c2ccccc2)n1C (centres unmarked)	-13.7
O=C(NC(=S)Nc1cc(S(=O)(=O)N2CCOCC2)ccc1N1CCOCC1)C1CCCC1	-17
COc1ccccc1/C=C1\CCCC2=C1Nc1nnnn1C2c1ccccc1OC (centres unmarked)	9
CC[C@H](C)[C@H](NC(N)=O)C(=O)OCC(=O)NCc1ccc(Cl)cc1	16.8
CN1CCC(OC(=O)c2ccco2)CC1.Cl	0.374
COc1ccc(-n2c(SCC#N)nc3c(sc(=S)n3-c3ccccc3)c2=O)c(OC)c1	18.1
CCNC(=O)COc1cc(C)c(Cl)c(C)c1	0.136
Cc1ccc(C(=O)NCCNC(=O)COc2ccccc2Cl)cn1	6.95
CC(=O)Nc1ccc(SCCC2CCCCN2C)cc1 (centres unmarked)	7.77
O=C1C2C3C=CC(CNS(=O)(=O)c4ccccc4)(O3)C2C(=O)N1c1ccc(Cl)cc1 (centres unmarked)	-7.19
Cc1ccc(C(=O)Nn2c(N)c(S(=O)(=O)c3ccc(C)cc3)c3nc4ccccc4nc32)cc1	0.488
COc1cccc(CNC(=O)C(CC(C)C)NC(=O)c2ccccc2C)c1 (centres unmarked)	22
N/C(=N\N=C\c1ccco1)SC1CC(=O)N(c2ccc(C(=O)O)cc2)C1=O (centres unmarked)	31.7
O=C(c1ccccc1)c1ccc2nc(N3CCN(C(=O)c4ccco4)CC3)c3nncn3c2c1	-45.1
COc1ccc([C@H]2CC(=O)C=C(c3ccc(SC)cc3)C2)cc1	13.8
COc1ccc(CNC(=O)c2cc3c(s2)CS(=O)C3)cc1 (centres unmarked)	12
CCOC(=O)c1cc(NC(=O)c2ccccc2)c(=O)oc1-c1ccccc1	3.33
CC(=O)N/N=C\c1ccccc1OC/C=C/c1ccccc1	30.5
